According to PubChem BioAssay AID624202 (National Center for Advancing Translational Sciences (NCATS), 2012):
About 4,000 (1.1%) of roughly 380,000 compounds were called active. Inconclusive means that the source gave no clear call. Such entries were picked first, then a sample of the others. Calls follow the shape of the dose curve; as a rule, active = well fitted activation curve with a large enough effect; inconclusive = small, poorly fitted or top-dose-only effect; inactive = no such curve, though single readings can be large or run the other way. Potencies beside an inconclusive call are fits to weak or partial responses and may not hold up.

Assay: qHTS Assay to Identify Small Molecule Activators of BRCA1 Expression; also: nearly all actives have a fitted effect of over 80% in size
Details: MCF7-BRCA1-FFLuc reporter, luminescence, 48 h; activation: at 46.1 µM (top of the series), scaled: vehicle 0%, 10 µM genistein 100% unless noted
In short: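 Compounds are tested at multiple concentrations on MCF7 BRCA1-luciferase reporter cells seeded at 2000 per well; after 48 h, a single luminescence end-point is taken and curves fitted to the normalized data.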
Potency is read from the fitted curve at half-maximal effect; tags tell the direction and shape of the fitted curve.

Compound	Potency	activation
COc1ccc(/C=N\Nc2ncc(F)c(N3CCOCC3)n2)cc1OC	inactive	
O=C(Nc1cccc(-c2ccc(N3CCOCC3)nn2)c1)c1cccc(Cl)c1	active: 7.08 µM	
Cc1ccc2nc(-c3ccc(Cl)cc3)c(Cc3ccccn3)n2c1	inconclusive: 17.8 µM [activator, partial curve, poor fit]	
Cc1ccc(Nc2ncnc3nc[nH]c23)cc1Cl	inconclusive: 3.16 µM [activator, partial curve, poor fit]	
O=C(COc1ccc2ccccc2c1)Nc1ccccc1C(=O)O	inconclusive: 20 µM [activator, partial curve, poor fit]	
COc1cc2cc(c1Cl)N(C)C(=O)CC(OC(=O)C(C)N(C)C(C)=O)C1(C)OC1C(C)C1CC(O)(NC(=O)O1)C(OC)C=CC=C(C)C2 (stereo not given)		inconclusive: -79.3% [activator]
Cc1ccc(NC(=S)NCCC2=CCCCC2)cc1	inconclusive: 2 µM [activator, partial curve, poor fit]	
O=C(NCCc1ccccc1)c1cccc(NC(=O)C2CCC2)c1	inconclusive: 12.6 µM [activator, partial curve, poor fit]	
CCc1cc(OCCN(C)C)ccc1Cl	inactive	
CC(C)(C)c1ccc(C(=O)Nc2ccc([N+](=O)[O-])cn2)cc1	inconclusive: 2.82 µM [activator, full curve, poor fit]	
CCOC(=O)C(=O)N/N=C/c1ccc(F)cc1	inactive	
c1ccc(-c2cnnc(-c3ccccn3)n2)cc1	active: 4.47 µM	
COc1ccc(CN2CN(S(=O)(=O)c3ccccc3)c3nc4ccccc4nc32)cc1	inconclusive: 12.6 µM [activator, single point]	
CC(=O)Nc1nc2cc3c(cc2s1)OCCO3	inconclusive: 1 µM [activator, full curve, poor fit]	
CCOC(=O)C1CCN(c2ncnc3c2nc2n3CCCCC2)CC1	inconclusive: 15.8 µM [activator, single point]	
Cc1ccc(-c2csc(NC(=O)CSc3nc(C)cs3)n2)cc1	active: 11.2 µM	
CCC(C)NC(=O)c1cc2cc3ccc(OC)cc3nc2o1 (stereo not given)	active: 11.2 µM	
N#C/C(=C\c1ccc(N2CCOCC2)cc1)c1ccccc1	inconclusive: 0.631 µM [activator, full curve, poor fit]	
COc1cccc(NC(=S)NC(=O)Cc2ccccc2)c1	inactive	
CCCn1c(SCC(=O)Nc2ccccc2-c2ccccc2)nnc1-c1ccoc1C	inactive	
O=C(CCCOc1ccccc1)Nc1ccc(Br)cc1	inactive	
O=C(NCC(=O)N1CC=C(c2ccccc2)CC1)c1ccco1	inconclusive: 14.1 µM [activator, partial curve, poor fit]	
O=C(NCCc1ccccc1)Oc1ccc(Cl)cc1	active: 12.6 µM	
Cc1c(C(=O)NCc2ccccn2)oc2ccc(Br)cc12	inconclusive: 8.91 µM [activator, partial curve, poor fit]	
COC(=O)c1sc(NC(=O)c2cc(C)on2)nc1C	active: 10 µM	

Compound	Potency	activation
Cc1c(CCNC=O)cc(C)c2c3c(oc12)CCCC3	active: 10 µM	
O=C(Nc1ccc2c(c1)OCO2)c1cccc(Cl)c1	active: 11.2 µM	
NS(=O)(=O)c1ccc(NNC(=O)c2ccc(Br)o2)c([N+](=O)[O-])c1	inactive	
Cc1ccc(-n2nc(-c3ccccc3)cc2Nc2ccccc2N)cc1	inactive	
COc1ccc(-n2ncc3c(NCC4CCCO4)ncnc32)cc1 (stereo not given)	inconclusive: 0.562 µM [activator, full curve, poor fit]	
COc1ccc(/C=N/Nc2ncc(Br)cn2)c(OC)c1	active: 10 µM	
O=C(Nc1ccc(Br)cc1)NC1CCCCCCC1	inconclusive: 2.51 µM [activator, partial curve, poor fit]	
Cc1cnc(C(=O)OCC(=O)Nc2ccc(C)c(S(=O)(=O)N(C)C)c2)cn1	inactive	
CSc1ccc(CC(=O)N2CCC(n3nccc3NC(=O)C3CC3)CC2)cc1	active: 2.82 µM	
O=C(Nc1ccc2c(c1)OCCO2)c1ccccc1	inconclusive: 2.51 µM [activator, partial curve, poor fit]	
CSc1ccc(N2C(=O)NC3(CCCCC3)C2=O)cc1	inconclusive: 15.8 µM [activator, partial curve, poor fit]	
CN(Cc1cccs1)C(=O)Cc1csc(-c2ccccc2)n1	inconclusive: 12.6 µM [activator, partial curve, poor fit]	
CNc1ncc(C(=O)c2ccccc2)s1	inconclusive: 12.6 µM [activator, partial curve, poor fit]	
Cc1ccc(/C=N/N2CCN(c3ccccc3)CC2)cc1	active: 12.6 µM	
CC(=O)Nc1ccc2nc(-c3ccc(Br)o3)[nH]c2c1	active: 10 µM	
Cc1cc(CNC(=O)c2cccc(OC3CCN(S(=O)(=O)N(C)C)CC3)c2)on1	inconclusive: 15.8 µM [activator, partial curve, poor fit]	
O=C1C(Cl)=C(NCC2CCCO2)C(=O)N1CCc1ccccc1 (stereo not given)	active: 7.94 µM	
CCN1C(=O)CC(N2CCN(c3ccc(C(=O)c4ccccc4)cc3)CC2)C1=O (stereo not given)	active: 11.2 µM	
Cn1c(SCc2cccc(F)c2)nnc1-c1cnccn1	inconclusive: 12.6 µM [activator, partial curve, poor fit]	
C(=N\Nc1ccccc1)/c1ccc(N2CCOCC2)cc1	inconclusive: 11.2 µM [activator, partial curve, poor fit]	
COc1ccc(NC(=O)Nc2ncccc2C)cc1	inconclusive: 14.1 µM [activator, partial curve, poor fit]	
O=C(Nc1cccc(Cl)c1)Nc1ccc2c(c1)OCO2	inconclusive: 25.1 µM [activator, single point]	
Cc1ccsc1/C=N/N=C/c1sccc1C	active: 2.24 µM	
Cc1cc(=O)[nH]c(N/N=C/C=C/c2ccccc2)n1	inactive	
Cn1c(SCc2c(F)cccc2Cl)nnc1-c1cnccn1	active: 2.51 µM	
